Source: patent US7592316B2, “Peptides as NS3-serine protease inhibitors of hepatitis C virus” (Schering Corporation, priority 2000, dated 2009)

molecular target: HCV NS3/NS4A protease (strain 1a) (Hepatitis C virus genotype 1a, UniProt P27958); test: biochemical; conditions: Compounds prepared by Solid Phase Synthesis, Table 3; read-out: Ki* CLASS

SMILES	Ki
CCCC(NC(=O)[C@@H]1C[C@@H](OC(C)(C)C)CN1C(=O)[C@@H](NC(=O)c1c(F)c(F)c(F)c(F)c1C(=O)O)C1CCCCC1)C(=O)C(=O)NCC(=O)NC(CC(N)=O)c1ccccc1 (some centres unmarked)	101 to 1000 nM
CCCC(NC(=O)[C@@H]1C[C@@H](OCc2ccccc2)CN1C(=O)[C@H](CCCC(=O)O)NC(=O)c1ccccc1C(=O)O)C(=O)C(=O)NCC(=O)N[C@H](C(N)=O)c1ccccc1 (some centres unmarked) ({Benzoyl(2-COOH)}-[Aad][Hyp](Bn)[X2]G[Phg]-NH2)	101 to 1000 nM
CCCCC(NC(=O)C(CCCC)NC(=O)CNC(=O)C(=O)C(CCC)NC(=O)[C@@H]1C[C@@H](OCc2ccccc2)CN1C(=O)C(NC(=O)[C@H]1CCCC[C@@H]1C(=O)c1ccccc1)C1CCCCC1)C(N)=O (some centres unmarked) (X74-[ξChg][Hyp](Bn)[X2]G[ξNle][ξNle]-NH2)	101 to 1000 nM
CCCCC(NC(=O)CNC(=O)C(=O)C(CCC)NC(=O)[C@@H]1C[C@@H](OCOCCOC)CN1C(=O)C(NC(=O)C(C)Cc1ccccc1)C1CCCCC1)C(N)=O (some centres unmarked) (X79-[ξChg][Hyp](MEM)[X2]G[ξNle]-NH2)	> 1000 nM
CCCC(NC(=O)[C@@H]1C[C@@H](OCc2ccccc2)CN1C(=O)C(NC(=O)C1CCCCC1C(=O)O)C1CCCCC1)C(=O)C(=O)NCC(=O)NC(C(=O)O)c1ccccc1 (some centres unmarked) (X103-[ξChg][Hyp](Bn)[X2]G[ξPhg]-OH)	1 to 100 nM
CCCC(NC(=O)[C@@H]1C[C@@H](OCc2ccccc2)CN1C(=O)C(NC(=O)c1ccccc1C(=O)O)C1CCCCC1)C(=O)C(=O)NCC(=O)NC(C(N)=O)c1ccccc1 (some centres unmarked) ({Benzoyl(2-COOH)}-[ξChg][Hyp](Bn)[X2]G[ξPhg]-NH2)	101 to 1000 nM
CCCCC(NC(=O)C(CCCC)NC(=O)CNC(=O)C(=O)C(CCC)NC(=O)[C@@H]1C[C@@H](OCc2ccccc2)CN1C(=O)C(NC(=O)C1CCCC1)C1CCCCC1)C(N)=O (some centres unmarked) (Cyclopentanecarbonyl-[ξChg][Hyp](Bn)[X2]G[ξNle][ξNle]-NH2)	101 to 1000 nM
CC(C)(C)OC(=O)N[C@H](C(=O)N1C[C@H](OC(C)(C)C)CC1C(=O)NC(CC1CC1)C(=O)C(=O)NCC(=O)N[C@H](C(N)=O)c1ccccc1)C1CCCCC1 (stereo partly drawn) (Boc-[Chg][ξPro(4R-OtBu)][X8]G[Phg]-NH2)	101 to 1000 nM
CCCCC(NC(=O)[C@@H]1C[C@@H](OCc2ccccc2)CN1C(=O)C(NC(=O)c1ccccc1-c1ccccc1)C1CCCCC1)C(=O)C(=O)NCC(=O)NC(C(N)=O)c1ccccc1 (some centres unmarked) ({Benzoyl(2-Ph)}-[ξChg][Hyp](Bn)[X4]G[ξPhg]-NH2)	> 1000 nM
CC(C)CC(NC(=O)[C@@H]1C[C@@H](OC(C)(C)C)CN1C(=O)[C@@H](NC(=O)Cc1ccccc1)C1CCCCC1)C(=O)C(=O)NCC(=O)N[C@H](C(N)=O)c1ccccc1 (some centres unmarked) (PhAc-[Chg][Hyp](tBu)[ξLeu(ψCOCO)]G[Phg]-NH2)	> 1000 nM

same assay, conditions: HCV protease continuous assay results, Table 1; read-out: Ki* Range

SMILES	Ki
CCCC(NC(=O)[C@@H]1CC2(CN1C(=O)[C@@H](NC(=O)OCC(C)C)[C@@H](C)OCc1ccc(C(C)(C)C)cc1)SCCCS2)C(=O)C(=O)NCC(=O)N[C@H](C(=O)N(C)C)c1ccccc1 (some centres unmarked) [Example 144] (Isobutyloxycarbonyl-T(X22)[Pro(4,4-S(CH2)3S)][X2]G[Phg]-NMe2)	101 to 1000 nM
C=C1C[C@@H](C(=O)NC(CCC)C(=O)C(=O)NCC(=O)N[C@H](C(=O)N(C)C)c2ccccc2)N(C(=O)[C@@H](NC(=O)OCC(C)C)C(C)(C)C)C1 (some centres unmarked) [Example 227] (Isobutyloxycarbonyl-[Tle][Pro(4-methylene)][X2]G[Phg]-NMe2)	1 to 100 nM
CCCC(NC(=O)[C@@H]1C[C@@H](O)CN1C(=O)[C@@H](NC(=O)c1cc(Cl)c(Cl)cc1C(=O)O)C1CCCCC1)C(=O)C(=O)NCCOC(C(N)=O)c1ccccc1 (some centres unmarked) [Example 105]	> 1000 nM
CCCC(NC(=O)[C@@H]1CC2(CN1C(=O)[C@@H](NC(=O)CC1CCCC1)C1CCCCC1)SCCCS2)C(=O)C(=O)NCC(=O)NC(C(=O)OC(C)(C)C)c1ccccc1 (some centres unmarked) [Example 134] (Cyclopentylacetyl-[Chg][Pro(4,4-S(CH2)3S)][X2]G[ξPhg]-OtBu)	101 to 1000 nM
CCC[C@H](NC(=O)[C@@H]1C[C@@H](OC(C)(C)C)CN1C(=O)[C@@H](NC(=O)OCC(C)C)C1CCCCC1)C(=O)C(=O)O [Example 302]	> 1000 nM
CCCC(NC(=O)[C@@H]1CCCN1C(=O)C(NC(=O)[C@@H](NC(=O)OC(C)(C)C)C(C)C)C1c2ccccc2CCc2ccccc21)C(=O)C(=O)NCC(=O)O (some centres unmarked) [Example 66]	> 1000 nM
C=CCCC(NC(=O)[C@@H]1[C@@H]2[C@H](CN1C(=O)[C@H](NC(=O)OC(C)(C)C)C(C)(C)C)C2(C)C)C(=O)C(=O)NCC(=O)O (some centres unmarked) [Example 300]	101 to 1000 nM
CC(C)CCC(NC(=O)[C@@H]1C[C@@H](OC(C)(C)C)CN1C(=O)[C@@H](NC(=O)OCC(C)C)C(C)(C)C)C(=O)C(=O)NCC(=O)N[C@H](C(=O)N(C)C)c1ccccc1 (some centres unmarked) [Example 255] (Isobutyloxycarbonyl-[Tle][Hyp](tBu)[X99]G[Phg]-NMe2)	101 to 1000 nM

same assay, conditions: Table 4; HCV NS3/NS4A protease, spectrophotometric assay, 30° C., pH 6.5; read-out: Ki* Range

SMILES	Ki
CCC[C@@H](NC(=O)[C@@H]1[C@@H](c2ccccc2)CCN1C(=O)[C@@H](NC(=O)OCC(C)C)C1CCCCC1)C(=O)C(=O)NCC(=O)N[C@H](C(=O)N(C)C)c1ccccc1 (Isobutyloxycarbonyl-[Chg][Pro(3R-Ph)][X19]G[Phg]-NMe2)	101 to 1000 nM

same assay, conditions: Table 5; HCV NS3/NS4A protease, 30° C., pH 6.5; read-out: Ki* Range

Ki	SMILES
1 to 100 nM	C=CCCNC(=O)C(=O)C(CCC=C)NC(=O)[C@@H]1[C@@H]2[C@H](CN1C(=O)C(NC(=O)OC(C)(C)C)C1Cc3ccccc3C1)C2(Cl)Cl (some centres unmarked)
101 to 1000 nM	C=CCNC(=O)C(=O)C(CCC)NC(=O)[C@@H]1[C@H]2[C@@H](CN1C(=O)[C@@H](NC(=O)NC1CCCC1)C1CCCC1)C2(C)C (some centres unmarked)

same assay, conditions: Table 5; HCV NS3/NS4A protease, spectrophotometric assay, 30° C., pH 6.5; read-out: Ki* Range

Ki	SMILES
> 1000 nM	CC(C)(C)OC(=O)N[C@H](C(=O)N1C[C@@H]2[C@H]([C@H]1C(=O)NC(CC1CCCCC1)C(=O)C(N)=O)C2(C)C)C1Cc2ccccc2C1 (some centres unmarked)
1 to 100 nM	CCCC(NC(=O)[C@@H]1[C@H]2[C@@H](CN1C(=O)[C@@H](NC(=O)OC(C)(C)C)C1CCCCC1)C2(Cl)Cl)C(=O)C(N)=O (some centres unmarked)

*1 amine or outer side, *2 acyl side, *3 side chain or, on linkers, in order; H or OH if unused. Where a SMILES comes first, the peptide text is derived from it. [ ]: non-standard residue; d: D form. The star is where a group is joined. ξ: configuration not given here. Pro(4,4-S(CH2)3S) = O=C(O)[C@@H]1CC2(CN1)SCCCS2; ξLeu(ψCOCO) = CC(C)CC(N[*:1])C(=O)C(=O)[*:2]; ξPro(4R-OtBu) = CC(C)(C)O[C@H]1CNC(C(=O)O)C1; Pro(3R-Ph) = O=C(O)[C@H]1NCC[C@@H]1c1ccccc1; X74 = O=C(c1ccccc1)[C@H]1CCCC[C@@H]1C(=O)*; Pro(4-methylene) = C=C1CN[C@H](C(=O)O)C1; Benzoyl(2-Ph) = O=C(c1ccccc1-c1ccccc1)*; Benzoyl(2-COOH) = O=C(O)c1ccccc1C(=O)*; X19 = CCC[C@@H](N[*:1])C(=O)C(=O)[*:2]; X99 = CC(C)CCC(N[*:1])C(=O)C(=O)[*:2]; Cyclopentanecarbonyl = O=C(C1CCCC1)*; Isobutyloxycarbonyl = CC(C)COC(=O)*; X8 = O=C(C(=O)[*:2])C(CC1CC1)N[*:1]; Cyclopentylacetyl = O=C(CC1CCCC1)*; X4 = CCCCC(N[*:1])C(=O)C(=O)[*:2]; Hyp = O=C(O)[C@@H]1C[C@@H](O)CN1; X2 = CCCC(N[*:1])C(=O)C(=O)[*:2]; Aad = N[C@@H](CCCC(=O)O)C(=O)O; Chg = N[C@H](C(=O)O)C1CCCCC1; Phg = N[C@H](C(=O)O)c1ccccc1; Tle = CC(C)(C)[C@H](N)C(=O)O; X103 = O=C(O)C1CCCCC1C(=O)*; X22 = CC(C)(C)c1ccc(C*)cc1; X79 = CC(Cc1ccccc1)C(=O)*; ξChg = NC(C(=O)O)C1CCCCC1; ξPhg = NC(C(=O)O)c1ccccc1; PhAc = O=C(Cc1ccccc1)*; Boc = CC(C)(C)OC(=O)*; ξNle = CCCCC(N)C(=O)O; Bn = c1ccc(C*)cc1; OtBu = CC(C)(C)O*; tBu = CC(C)(C)*; MEM = COCCOC*
